B1: 1H3-hIgG1-L6-hIL-2 (D20A/E95A/Y45A) (protein)
heavy: EVQLVESGGGLVQPGRSLKLSCAVSGFTFSDYAMAWVRQAPKKGLEWVATISYDGSRTYYRDSVKGRFTISRDNAKITLYLQMDSLRSEDTATYYCARHGSGYFDYWGQGVMVTVSS[not shown - human IgG1 constant region]SGGGGSAPTSSSTKKTQLQLEHLLLALQMILNGINNYKNPKLTRMLTFKFAMPKKATELKHLQCLEEELKPLEEVLNLAQSKNFHLRPRDLISNINVIVLALKGSETTFMCEYADETATIVEFLNRWITFCQSIISTLT
light: DTVLTQSPALAVSPGERVTISCRASESVRTGVHWYQQKPGQQPKLLIYGASNLESGVPARFSGSGSGTDFTLTIDPVEADDTATYFCQQSWNDPFTFGSGTKLEIKRTVAAPSVFIFPPSDEQLKSGTASVVCLLNNFYPREAKVQWKVDNALQSGNSQESVTEQDSKDSTYSLSSTLTLSKADYEKHKVYACEVTHQGLSSPVTKSFNRGEC
B2: 1H3-hIgG1-L6-hIL-2 (D20A/E95A/Y45K) (protein)
heavy: EVQLVESGGGLVQPGRSLKLSCAVSGFTFSDYAMAWVRQAPKKGLEWVATISYDGSRTYYRDSVKGRFTISRDNAKITLYLQMDSLRSEDTATYYCARHGSGYFDYWGQGVMVTVSS[not shown - human IgG1 constant region]SGGGGSAPTSSSTKKTQLQLEHLLLALQMILNGINNYKNPKLTRMLTFKFKMPKKATELKHLQCLEEELKPLEEVLNLAQSKNFHLRPRDLISNINVIVLALKGSETTFMCEYADETATIVEFLNRWITFCQSIISTLT
light: B1 light
B3: 1H3-hIgG1-L6-hIL-2 (D20A/E95A/Y45R) (protein)
heavy: EVQLVESGGGLVQPGRSLKLSCAVSGFTFSDYAMAWVRQAPKKGLEWVATISYDGSRTYYRDSVKGRFTISRDNAKITLYLQMDSLRSEDTATYYCARHGSGYFDYWGQGVMVTVSS[not shown - human IgG1 constant region]SGGGGSAPTSSSTKKTQLQLEHLLLALQMILNGINNYKNPKLTRMLTFKFRMPKKATELKHLQCLEEELKPLEEVLNLAQSKNFHLRPRDLISNINVIVLALKGSETTFMCEYADETATIVEFLNRWITFCQSIISTLT
light: B1 light
B4: 1H3-hIgG1-L6-hIL-2 (D20A/E95A/E61A) (protein)
heavy: EVQLVESGGGLVQPGRSLKLSCAVSGFTFSDYAMAWVRQAPKKGLEWVATISYDGSRTYYRDSVKGRFTISRDNAKITLYLQMDSLRSEDTATYYCARHGSGYFDYWGQGVMVTVSS[not shown - human IgG1 constant region]SGGGGSAPTSSSTKKTQLQLEHLLLALQMILNGINNYKNPKLTRMLTFKFYMPKKATELKHLQCLEAELKPLEEVLNLAQSKNFHLRPRDLISNINVIVLALKGSETTFMCEYADETATIVEFLNRWITFCQSIISTLT
light: B1 light
B5: 1H3-hIgG1-L6-hIL-2 (D20A/E95A/E62A) (protein)
heavy: EVQLVESGGGLVQPGRSLKLSCAVSGFTFSDYAMAWVRQAPKKGLEWVATISYDGSRTYYRDSVKGRFTISRDNAKITLYLQMDSLRSEDTATYYCARHGSGYFDYWGQGVMVTVSS[not shown - human IgG1 constant region]SGGGGSAPTSSSTKKTQLQLEHLLLALQMILNGINNYKNPKLTRMLTFKFYMPKKATELKHLQCLEEALKPLEEVLNLAQSKNFHLRPRDLISNINVIVLALKGSETTFMCEYADETATIVEFLNRWITFCQSIISTLT
light: B1 light
B6: 1H3-hIgG1-L6-hIL-2 (D20A/E95A/E62R) (protein)
heavy: EVQLVESGGGLVQPGRSLKLSCAVSGFTFSDYAMAWVRQAPKKGLEWVATISYDGSRTYYRDSVKGRFTISRDNAKITLYLQMDSLRSEDTATYYCARHGSGYFDYWGQGVMVTVSS[not shown - human IgG1 constant region]SGGGGSAPTSSSTKKTQLQLEHLLLALQMILNGINNYKNPKLTRMLTFKFYMPKKATELKHLQCLEERLKPLEEVLNLAQSKNFHLRPRDLISNINVIVLALKGSETTFMCEYADETATIVEFLNRWITFCQSIISTLT
light: B1 light
B7: 1H3-hIgG1-L6-hIL-2 (D20A/E95A/E62K) (protein)
heavy: EVQLVESGGGLVQPGRSLKLSCAVSGFTFSDYAMAWVRQAPKKGLEWVATISYDGSRTYYRDSVKGRFTISRDNAKITLYLQMDSLRSEDTATYYCARHGSGYFDYWGQGVMVTVSS[not shown - human IgG1 constant region]SGGGGSAPTSSSTKKTQLQLEHLLLALQMILNGINNYKNPKLTRMLTFKFYMPKKATELKHLQCLEEKLKPLEEVLNLAQSKNFHLRPRDLISNINVIVLALKGSETTFMCEYADETATIVEFLNRWITFCQSIISTLT
light: B1 light
B8: 1H3-hIgG1-L6-hIL-2 (D20A/E95A/E62Y) (protein)
heavy: EVQLVESGGGLVQPGRSLKLSCAVSGFTFSDYAMAWVRQAPKKGLEWVATISYDGSRTYYRDSVKGRFTISRDNAKITLYLQMDSLRSEDTATYYCARHGSGYFDYWGQGVMVTVSS[not shown - human IgG1 constant region]SGGGGSAPTSSSTKKTQLQLEHLLLALQMILNGINNYKNPKLTRMLTFKFYMPKKATELKHLQCLEEYLKPLEEVLNLAQSKNFHLRPRDLISNINVIVLALKGSETTFMCEYADETATIVEFLNRWITFCQSIISTLT
light: B1 light
B9: 1H3-hIgG1-L6-hIL-2 (D20A/E95A/E68Y) (protein)
heavy: EVQLVESGGGLVQPGRSLKLSCAVSGFTFSDYAMAWVRQAPKKGLEWVATISYDGSRTYYRDSVKGRFTISRDNAKITLYLQMDSLRSEDTATYYCARHGSGYFDYWGQGVMVTVSS[not shown - human IgG1 constant region]SGGGGSAPTSSSTKKTQLQLEHLLLALQMILNGINNYKNPKLTRMLTFKFYMPKKATELKHLQCLEEELKPLEYVLNLAQSKNFHLRPRDLISNINVIVLALKGSETTFMCEYADETATIVEFLNRWITFCQSIISTLT
light: B1 light
B10: 1H3-hIgG1-L6-hIL-2 (D20A/E95A/E68A) (protein)
heavy: EVQLVESGGGLVQPGRSLKLSCAVSGFTFSDYAMAWVRQAPKKGLEWVATISYDGSRTYYRDSVKGRFTISRDNAKITLYLQMDSLRSEDTATYYCARHGSGYFDYWGQGVMVTVSS[not shown - human IgG1 constant region]SGGGGSAPTSSSTKKTQLQLEHLLLALQMILNGINNYKNPKLTRMLTFKFYMPKKATELKHLQCLEEELKPLEAVLNLAQSKNFHLRPRDLISNINVIVLALKGSETTFMCEYADETATIVEFLNRWITFCQSIISTLT
light: B1 light
B11: 1H3-hIgG1-L6-hIL-2 (D20A/E95A/E68L) (protein)
heavy: EVQLVESGGGLVQPGRSLKLSCAVSGFTFSDYAMAWVRQAPKKGLEWVATISYDGSRTYYRDSVKGRFTISRDNAKITLYLQMDSLRSEDTATYYCARHGSGYFDYWGQGVMVTVSS[not shown - human IgG1 constant region]SGGGGSAPTSSSTKKTQLQLEHLLLALQMILNGINNYKNPKLTRMLTFKFYMPKKATELKHLQCLEEELKPLELVLNLAQSKNFHLRPRDLISNINVIVLALKGSETTFMCEYADETATIVEFLNRWITFCQSIISTLT
light: B1 light
B12: 1H3-hIgG1-L6-hIL-2 (D20A/E95A/L72R) (protein)
heavy: EVQLVESGGGLVQPGRSLKLSCAVSGFTFSDYAMAWVRQAPKKGLEWVATISYDGSRTYYRDSVKGRFTISRDNAKITLYLQMDSLRSEDTATYYCARHGSGYFDYWGQGVMVTVSS[not shown - human IgG1 constant region]SGGGGSAPTSSSTKKTQLQLEHLLLALQMILNGINNYKNPKLTRMLTFKFYMPKKATELKHLQCLEEELKPLEEVLNRAQSKNFHLRPRDLISNINVIVLALKGSETTFMCEYADETATIVEFLNRWITFCQSIISTLT
light: B1 light

molecular target: intermediate affinity hIL-2 receptor complex (IL-2Rβγ) on TF1+IL-2Rβ cells (human) (UniProt P14784); experiment: cell-based or functional assay

| Binder | Fold change from hIL-2 (TF1 + IL-2Rβ) [fold] |
| --- | --- |
| B1 | 5 |
| B2 | 6 |
| B3 | 6 |
| B4 | 6 |
| B5 | 6 |
| B6 | 17 |
| B7 | 15 |
| B8 | 10 |
| B9 | 5 |
| B10 | 8 |
| B11 | 9 |
| B12 | 9 |

molecular target: high-affinity hIL-2 receptor (IL-2Rαβγ) (human) (UniProt P01589); experiment: cell-based or functional assay

| Binder | Agonistic Activity (NK-92), pSTAT5 titration [%] | Fold change from rhIL-2 (NK-92), pSTAT5 titration [fold] |
| --- | --- | --- |
| B1 | 90 | 62 |
| B2 | 70 | 7950 |
| B3 | 80 | > 10000 |
| B4 | 80 | 367 |
| B5 | 70 | 3260 |
| B6 | 5 | > 10000 |
| B7 | 10 | > 10000 |
| B8 | 70 | > 10000 |
| B9 | 80 | 131 |
| B10 | 60 | 45 |
| B11 | 80 | 187 |
| B12 |  | 1180 |

molecular target: intermediate affinity hIL-2 receptor (hIL-2Rβγ) on TF1+IL-2Rβ cells (human) (UniProt P14784); experiment: cell-based or functional assay

| Binder | Agonistic Activity (TF1 + IL-2Rβ) [%] | Fold change from rhIL-2 (TF1 + IL-2Rβ) [fold] |
| --- | --- | --- |
| B1 | 90 | 82 |
| B2 | 60 | 383 |
| B3 | 50 | 57 |
| B4 | 80 | 702 |
| B5 | 60 | 661 |
| B6 |  | > 10000 |
| B7 |  | > 10000 |
| B8 | 30 | 982 |
| B9 |  | 469 |
| B10 | 80 | 535 |
| B11 | 60 | 972 |
| B12 | 40 | 316 |

molecular target: high-affinity hIL-2 receptor (IL-2Rαβγ) on NK-92 cells (human) (UniProt P01589); experiment: cell-based or functional assay

| Binder | Fold change from hIL-2 (NK-92) [fold] | Fold change from rhIL-2 (NK-92) [fold] | Agonistic Activity (NK-92) [%] |
| --- | --- | --- | --- |
| B1 | 4 | 25 |  |
| B2 | 22 | > 10000 | 20 |
| B3 | 25 | > 10000 |  |
| B4 | 10 | 306 | 80 |
| B5 | 23 | > 10000 | 20 |
| B6 | 25 | > 10000 |  |
| B7 | 25 | > 10000 |  |
| B8 | 25 | 721 | 40 |
| B9 | 8 | 11 |  |
| B10 | 5 | 6 | 50 |
| B11 | 7 | 15 |  |
| B12 | 12 | 655 | 50 |

molecular target: intermediate affinity hIL-2 receptor complex (IL-2Rβγ) (human) (UniProt P14784); experiment: cell-based or functional assay

| Binder | Agonistic Activity (TF1 + IL-2Rβ), pSTAT5 titration [%] | Fold change from rhIL-2 (TF1 + IL-2Rβ), pSTAT5 titration [fold] |
| --- | --- | --- |
| B1 | 70 | 300 |
| B2 | 60 | 205 |
| B3 | 60 | 293 |
| B4 | 60 | 195 |
| B5 | 50 | 230 |
| B6 | 10 | > 10000 |
| B7 | 10 | > 10000 |
| B8 | 40 | 265 |
| B9 | 50 | 61 |
| B10 | 60 | 620 |
| B11 | 40 | 172 |
| B12 | 70 | 499 |
